The campaign covered roughly 310,000 compounds. About 2,200 (0.71%) showed an effect of 50% or more. The effect is printed as a negative number. This is one part of the list.

For this test, the target named is human ether-à-go-go-related gene (hERG) potassium channel (human, UniProt Q12809). The experiment in a line: primary screen, population patch clamp on CHO cells stably expressing hERG.
Chain of human ether-à-go-go-related gene (hERG) potassium channel (Q12809 whole entry, looked up): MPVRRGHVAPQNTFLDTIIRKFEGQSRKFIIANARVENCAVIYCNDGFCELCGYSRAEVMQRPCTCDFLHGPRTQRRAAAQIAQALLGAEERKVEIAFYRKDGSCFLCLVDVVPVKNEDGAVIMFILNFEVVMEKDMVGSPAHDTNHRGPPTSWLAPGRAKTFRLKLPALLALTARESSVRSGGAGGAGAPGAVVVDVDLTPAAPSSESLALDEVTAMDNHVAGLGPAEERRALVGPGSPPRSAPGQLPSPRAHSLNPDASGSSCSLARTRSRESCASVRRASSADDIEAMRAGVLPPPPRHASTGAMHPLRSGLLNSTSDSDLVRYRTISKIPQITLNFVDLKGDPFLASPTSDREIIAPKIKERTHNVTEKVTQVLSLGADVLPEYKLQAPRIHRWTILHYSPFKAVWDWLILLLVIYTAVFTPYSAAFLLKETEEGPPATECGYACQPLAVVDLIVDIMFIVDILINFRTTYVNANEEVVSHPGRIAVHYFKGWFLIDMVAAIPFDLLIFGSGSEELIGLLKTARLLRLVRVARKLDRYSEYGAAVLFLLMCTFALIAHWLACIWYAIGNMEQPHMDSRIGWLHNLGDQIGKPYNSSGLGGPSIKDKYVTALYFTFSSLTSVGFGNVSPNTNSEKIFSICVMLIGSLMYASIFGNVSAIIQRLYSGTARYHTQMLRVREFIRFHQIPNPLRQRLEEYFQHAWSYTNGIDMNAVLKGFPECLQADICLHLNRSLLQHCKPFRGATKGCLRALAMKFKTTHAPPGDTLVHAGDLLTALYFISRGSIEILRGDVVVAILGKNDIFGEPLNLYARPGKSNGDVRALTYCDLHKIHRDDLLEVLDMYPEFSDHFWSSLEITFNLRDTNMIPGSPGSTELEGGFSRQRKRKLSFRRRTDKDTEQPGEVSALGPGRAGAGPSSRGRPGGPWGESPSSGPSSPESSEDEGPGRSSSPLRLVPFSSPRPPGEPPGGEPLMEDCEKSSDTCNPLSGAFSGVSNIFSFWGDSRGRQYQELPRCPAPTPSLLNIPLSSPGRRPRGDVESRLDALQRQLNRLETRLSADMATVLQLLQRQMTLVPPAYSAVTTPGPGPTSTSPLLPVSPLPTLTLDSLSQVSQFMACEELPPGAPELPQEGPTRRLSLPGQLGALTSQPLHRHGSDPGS
Turning to `O=C(c1c(F)c(F)c(F)c(F)c1F)N(Cc1ccccc1)Cc1ccccc1`, the “hERG current change (%, negative = inhibition) at 1uM” value is listed as 10.2%.

Take `Cc1ccccc1N1CCN(c2ncnc3c2cnn3Cc2ccc(Cl)cc2)CC1`: the “hERG current change (%, negative = inhibition) at 1uM” value was found to be 15.7%. With `Cn1nc(CC(=O)NCc2ccc(C(F)(F)F)cc2)c2ccccc2c1=O` the figure was -1.19%; with `Cc1ccnc(NC(=O)Nc2ccc(F)cc2)c1`, 15.7%. With `Cc1ccc2c(CN(C)Cc3ccccc3)cc(=O)oc2c1C` the figure was 13.3%; with `Cc1c(NC(=S)NC(=O)c2cccc3ccccc23)cccc1C(=O)O`, 6.19%; with `CN(C)C(=O)CSc1nc2ccccc2n1Cc1ccccc1`, 4.73%.

With `O=C(CSc1nc2[nH]ncc2c(=O)[nH]1)Nc1ccccc1`, the “hERG current change (%, negative = inhibition) at 1uM” value worked out at 8.84%.

With `COc1ccccc1NC(=O)c1c(N=Cc2cccc([N+](=O)[O-])c2)cnn1C`, the “hERG current change (%, negative = inhibition) at 1uM” value is 14.2%.

With `N#C/C(=C(/O)COc1ccccc1)c1nc2ccccc2s1`, the “hERG current change (%, negative = inhibition) at 1uM” value was determined as 20.6%. With `C=CCc1cc(/C=C/c2nc(O)c([N+](=O)[O-])c(=O)[nH]2)cc(OC)c1O` the figure was 16.2%; with `COc1cccc(CNC(=O)C2CCN(S(=O)(=O)c3ccc(C)cc3)CC2)c1`, -2.72%; with `O=C(O)CC/C(=N/NC(=O)CNC(=O)C(c1ccccc1)c1ccccc1)c1ccccc1`, 9.36%.

Regarding `Cc1cc(NC(=O)CSc2nc(C3CC3)nc3sc(C)c(C)c23)no1`, the “hERG current change (%, negative = inhibition) at 1uM” value worked out at 17.7%.

`CC(C)NC(=O)CN(c1cccc(Br)c1)S(C)(=O)=O`: the “hERG current change (%, negative = inhibition) at 1uM” value is given as -1.63%. Consider `O=C(CSCc1ccc(Cl)cc1)Nc1ccc(Br)cc1C(=O)O`, for which the “hERG current change (%, negative = inhibition) at 1uM” value came out at 7.66%. With `CCO.N#Cc1c(SC(C(=O)O)c2ccccc2)nc2c(c1-c1cccs1)CCCC2` (stereo not shown) the figure was 10.8%; with `CCCNC(=O)c1ccccc1NC(=O)c1ccccc1N(C)S(C)(=O)=O`, 9.56%. With `O=C(COC(=O)c1cc(=O)c2ccccc2o1)NCC1CCCCC1` the figure was 6.37%; with `Cn1ncc(C#N)c1/N=C/N1CCCC1`, 12.8%; with `S=C(c1ccc(-c2cccc(Cl)c2)o1)N1CCOCC1`, 13.1%. With `COc1ccc(C)cc1N1CC(C(=O)Nc2ccccc2C(=O)NC2CC2)CC1=O` (stereo not shown) the figure was 7.76%; with `CN(C)c1ccc(/C=C2/C(=O)NC(=O)N(Cc3ccco3)C2=O)cc1`, 11.9%; with `CN(C)S(=O)(=O)N1CCN(c2ccc([N+](=O)[O-])c(N3CCCCC3)c2)CC1`, 15.7%.

For `O=C(Cn1ccc(C(F)(F)F)n1)Nc1cccc(S(=O)(=O)N2CCCCC2)c1`, the “hERG current change (%, negative = inhibition) at 1uM” value was -3.3%. With `CCC(=O)NCCc1c[nH]c2ccccc12` the figure was 12.5%; with `COc1ccc(CCN=C(N)NS(=O)(=O)c2ccccc2)cc1OC`, 7.46%. With `Cc1c(C(=O)NCc2ccccc2)c(-c2ccccc2)nn1-c1ccccc1` the figure was 0.782%; with `CC(OC(=O)C1CSC2(C)CCC(=O)N12)C(=O)Nc1cccc(C#N)c1` (stereo not shown), 18.8%. With `CCN1CCN(C(c2ccccc2)c2nnnn2CCc2ccc(OC)c(OC)c2)CC1.Cl` (stereo not shown) the figure was 12.9%; with `CCOC(=O)C1(Cc2cccc(Cl)c2)CCCN(C(=O)CCOC)C1` (stereo not shown), 7.79%; with `Clc1ccccc1N1CCN(Cc2ccco2)CC1`, 13.6%. For the compound `CC(=NCc1ccco1)c1c(O)n(-c2ccc(Cl)cc2)c(=O)[nH]c1=O`, the “hERG current change (%, negative = inhibition) at 1uM” value turned out to be 13.1%. With `O=C(COc1ncnc2scc(-c3ccccc3)c12)NC1CCCc2ccccc21` (stereo not shown) the figure was -12%; with `COc1ccc(CNC(=O)C(=O)NCC2CCCO2)cc1` (stereo not shown), 6.7%; with `CC[n+]1ccc(C[n+]2ccccc2)c2ccccc21.[I-]`, 20.1%. With `O=C(CSc1ccc(-c2ccccc2)nn1)NC1CCCCC1` the figure was 12.9%. With `Cc1cc(=O)n(C)c(=O)n1CCCCCCOc1cccc([N+](=O)[O-])c1` the figure was -22.7%. With `COc1ccc(CCNC(=O)c2cnc3scc(C)n3c2=O)cc1OC`, the “hERG current change (%, negative = inhibition) at 1uM” value is -7.04%. With `O=C(O)c1cnc(-c2ccccc2)nc1-c1ccccc1` the figure was -1.68%; with `Cc1cccc(NC(=S)NN2CCOCC2)c1C`, 14%. In the case of `Oc1ccc2ccccc2c1/C=N/n1cnnc1`, the “hERG current change (%, negative = inhibition) at 1uM” value is on record as 4.62%. With `COCCCNC(=O)/C=C/c1ccc(OCc2c(F)cccc2Cl)cc1` the figure was 10.3%. As to `Cc1ccc(S(=O)(=O)N/N=C\C=C\c2ccccc2)cc1`, the “hERG current change (%, negative = inhibition) at 1uM” value is 7.93%. With `CCNc1nc(NCC)n2c(SCC(=O)Nc3ccccc3[N+](=O)[O-])nnc2n1` the figure was -2.5%; with `CCC(CC)NC(=O)C1CC(=O)N(CCc2ccc(F)cc2)C1` (stereo not shown), 14%; with `C#CCOCCOCCOCCNc1nc(N2CCN(C(=O)C([C@@H](C)CC)n3cc(C(N)Cc4ccc(O)cc4)nn3)CC2)nc(N2CCN(C(=O)[C@H](CCC(=O)O)n3cc(C(N)[C@H](C)CC)nn3)CC2)n1.Cl` (stereo partly shown), 0.185%.

`NC(=O)c1nsnc1-c1ccccc1O`: the “hERG current change (%, negative = inhibition) at 1uM” value is recorded as 14.1%. Regarding `Cc1nn(-c2ccccc2)c(Cl)c1/C=N/NC(=O)c1ccnn1C`, the “hERG current change (%, negative = inhibition) at 1uM” value was 3.69%. Regarding `CCOc1ccccc1NC(=O)CCc1c(C)nn(-c2ccc(N3CCCCC3)nn2)c1C`, the “hERG current change (%, negative = inhibition) at 1uM” value came to 20.6%. With `O=C(CNC(=O)c1ccc(F)cc1)N/N=C/c1cc(Br)ccc1OCc1ccccc1` the figure was 17%; with `Cn1cccc1C(=O)OCc1cc(Cl)cc2c1OCOC2`, 9.56%; with `CCNC(=S)N1CCCC(c2nc3ccc(C)cc3[nH]2)C1` (stereo not shown), 7.78%. With `COC(=O)[C@@]12CCCCN1[C@H](c1ccc(-c3ccc(OC)cc3)c(OC)c1)[C@@H]1C(=O)N(C)C(=O)[C@@H]12.O=C(O)C(F)(F)F` the figure was 7.88%. Take `COc1ccc(NC(C)C(=O)N/N=C/c2ccc([N+](=O)[O-])s2)cc1` (stereo not shown): the “hERG current change (%, negative = inhibition) at 1uM” value turned out to be 7.84%.
